Test results as given in PubChem BioAssay AID485367 (National Center for Advancing Translational Sciences (NCATS), 2010).
In all, about 330,000 compounds went through this assay and about 560 (0.17%) were called active. Inconclusive results, whose numbers are uncertain, are shown with a selection of clear calls. Calls come from the whole dose curve; as a rule, active = well fitted inhibition curve with a large enough effect; inconclusive = small, poorly fitted or top-dose-only effect, or effect the other way; inactive = flat fitted curve, though single readings scatter. No potency is given beside an inconclusive call; the fits are too rough.

molecular target: ATP-dependent 6-phosphofructokinase (Trypanosoma brucei brucei) (UniProt O15648); assay: qHTS Assay to Find Inhibitors of T. brucei phosphofructokinase; note: nearly all actives have a fitted effect of over 60% in size;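 for activity, negative = inhibition: 0% = uninhibited 1x PFK enzyme wells and -100% = no-enzyme wells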; settings: T. brucei PFK, ADP-Glo luminescence; activity, negative = inhibition: at 57.5 µM (top of the series)
Sequence of UniProt O15648 (O15648 whole entry, looked up): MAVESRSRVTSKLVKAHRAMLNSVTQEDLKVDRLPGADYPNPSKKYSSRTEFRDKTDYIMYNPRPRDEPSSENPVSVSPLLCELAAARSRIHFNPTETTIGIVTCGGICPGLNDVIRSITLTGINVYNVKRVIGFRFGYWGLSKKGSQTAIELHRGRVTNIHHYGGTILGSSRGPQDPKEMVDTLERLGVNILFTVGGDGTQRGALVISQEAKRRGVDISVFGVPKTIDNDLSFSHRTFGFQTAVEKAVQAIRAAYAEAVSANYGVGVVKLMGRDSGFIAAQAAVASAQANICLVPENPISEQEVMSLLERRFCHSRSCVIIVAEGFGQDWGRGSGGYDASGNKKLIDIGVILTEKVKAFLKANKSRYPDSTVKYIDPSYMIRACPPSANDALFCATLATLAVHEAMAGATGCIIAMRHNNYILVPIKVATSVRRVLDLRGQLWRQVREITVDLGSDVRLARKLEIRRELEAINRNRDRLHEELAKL
How it was run: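 Luminescent ADP detection (ADP-Glo, two-step: ATP depletion then ADP-to-ATP conversion for luciferase) reported PFK activity after 45 min room-temperature reaction of 1.25 nM enzyme with 0.5 mM F6P and 0.1 mM ATP at pH 8.0.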
Potency is the fitted concentration of half-maximal effect; tags give direction and shape of the fitted curve.

SMILES | activity, negative = inhibition | Potency
O=C1NC(=S)N/C1=C/c1cccc([N+](=O)[O-])c1O | inactive: -1.28% | –
COc1ccc(C(=O)Nc2ccnn2C2CCN(Cc3ccc4nonc4c3)CC2)cc1 | – | inconclusive [falling, single point]
CC(C)N(C(=O)CSc1nnc(CNc2ccc(F)cc2)o1)C(C)C | – | active: 16.9 µM
Cc1ccc(NC(=O)CSc2nc3[nH]c(=O)cc(O)c3s2)c(Br)c1 | inactive: -3.32% | –
CCc1cc(CNC(=O)c2ccc(OC3CCN(CCc4ccccc4)CC3)cc2)on1 | – | active: 15.1 µM
Cc1cccc(C)c1NC(=S)Nc1ccc(Cl)c(Cl)c1 | – | active: 21.3 µM
CCCn1c(SCC(=O)NC(=O)NCc2ccco2)n[nH]c1=O | – | inconclusive [falling, single point]
Cc1ccc2oc(C(=O)Nc3ccc(S(=O)(=O)Nc4onc(C)c4C)cc3)cc(=O)c2c1 | – | inconclusive [activator, partial curve]
O=C(NCCN1CCN(C(=O)c2c(F)cccc2F)CC1)C(=O)Nc1ccc(Cl)cc1 | inactive: 0.581% | –
O=C1c2ccccc2C(=O)c2c([N+](=O)[O-])ccc(O)c21 | – | inconclusive [falling, partial curve]
COC(=O)C1CCCCN1C(=O)c1cccc(OC2CCN(C(=O)C3CC3)CC2)c1 (stereo unspecified) | – | inconclusive [falling, single point]
C#CCOCCOCCOCCNc1nc(N2CCN(C(=O)CCCCCCCCCCNC(=O)Cn3cc(CCCCCN)nn3)CC2)nc(N2CCN(C(=O)CCCCCCCCCCNC(=O)[C@H]([C@@H](C)CC)n3cc(CCCCN=C(N)N)nn3)CC2)n1 | – | inconclusive [activator, single point]
CCOC(=O)c1[nH]c2ccc(OC)cc2c1NC(=O)CN1CCSCC1 | inactive: 6.64% | –
CCc1ccc(CN2CCCC(CNS(=O)(=O)c3ccc(OC)cc3)C2)cc1 (stereo unspecified) | inactive: -5.98% | –
COc1ccc(CN2CCN(CCC(C)C)C(CCO)C2)cc1Cn1cncn1 (stereo unspecified) | – | inconclusive [falling, single point]
COc1ccc(-c2csc3ncnc(N4CCN(Cc5ccccc5)CC4)c23)cc1 | inactive: -0.0181% | –
CC(C)C1=CC2=CCC3C(C)(C(=O)O)CCCC3(C)C2CC1 (stereo unspecified) (tested in a mixture with another compound) | – | inconclusive [falling, single point]
CCOC(=O)CCCCC(=O)c1[nH]c(=O)[nH]c1CSc1nc2ccccc2[nH]1 | inactive: -6.25% | –
CCCNC(=O)Cn1sc2nc(C)cc(C)c2c1=O | – | active: 8.49 µM
O=C(Nc1cccc(Oc2ccc(C(=O)O)c(C(=O)O)c2)c1)c1ccc(-c2ccccc2)cc1 | – | inconclusive [falling, partial curve]
COc1ccc(CCC(N)=O)cc1OC | inactive: -5.66% | –
CC(=O)Nc1cc(C(=O)CSc2nnc(C3CC3)n2C2CC2)ccc1O | – | inconclusive [falling, partial curve]
CCc1cc2c(=O)n(Cc3ccco3)c(SCC(=O)N(C)C3CCS(=O)(=O)C3)nc2s1 (stereo unspecified) | – | inconclusive [falling, single point]
CCS(=O)(=O)C1=NN2C(=N)/C(=C\c3ccc(OS(=O)(=O)c4ccccc4)cc3)C(=O)N=C2S1 | – | inconclusive [falling, single point]

SMILES | activity, negative = inhibition | Potency
O=[N+]([O-])c1ccccc1NC(=S)N/N=C/c1ccc(O)c(O)c1 | inactive: -12% | –
NC(=O)COc1ccc(Nc2nnc(-c3ccc(O)cc3)c3ccccc23)cc1 | inactive: 1.37% | –
Cc1ccc(S(=O)(=O)Nc2ccccc2C=Nc2cccc(C)c2C)cc1 | inactive: 0% | –
Cc1ccc(S(=O)(=O)c2c(C)nn(C(C)(C)C)c2OC(=O)c2ccco2)cc1 | – | inconclusive [falling, single point]
CCOC(=O)CNS(=O)(=O)c1cc(-c2nn(C)c(=O)c3ccccc23)ccc1C | – | inconclusive [falling, single point]
Clc1ccc(CN2C3=NCCCN3c3ccccc32)cc1Cl | – | active: 13.5 µM
Cc1nc(SCC(=O)c2cccc([N+](=O)[O-])c2)n[nH]1 | – | inconclusive [falling, single point]
Cn1c(SCC(=O)NC(=O)NCc2ccco2)nnc1-c1ccccc1 | – | inconclusive [falling, full curve]
O=C(/C=C/c1ccc(OCCCF)cc1)NCc1cccc(Cl)c1 | – | inconclusive [falling, partial curve]
CN(C)CCCN(C(=O)COc1ccc(Cl)cc1)c1nc2ccc(F)cc2s1 | – | inconclusive [activator, single point]
COc1ccc(Nc2nc3ccccc3c(=O)[nH]2)cc1 | – | inconclusive [falling, single point]
Cc1ccc(Cl)c(NC(=O)COC(=O)c2ccccc2C(=O)c2ccc(Cl)c([N+](=O)[O-])c2)c1Cl | inactive: 1.65% | –
COc1ccc(-c2cc3nc(C)cc(N)n3n2)cc1 | – | inconclusive [falling, single point]
CC(=O)c1ccc(C(=O)N(C)C2CCCN(Cc3ccccc3F)C2)s1 (stereo unspecified) | – | inconclusive [falling, single point]
CCOC(=O)c1ccc2c(c1)C1C=CCC1C(C(=O)O)N2 (stereo unspecified) | – | active: 19 µM
CCOC(=O)/C(C#N)=C1\SS/C(=C(/C#N)C(=O)OCC)S1 | – | inconclusive [falling, partial curve]
O=C(O)c1ccc(Nc2cc(Cl)c3nonc3c2[N+](=O)[O-])cc1 | – | inconclusive [falling, single point]
NC(=O)CC(NC(=O)c1ccccc1)c1ccc(NCc2ccc(F)c(F)c2)c([N+](=O)[O-])c1 (stereo unspecified) | – | inconclusive [falling, single point]
COc1ccc(/C=N/N=C2/CC(C)(C)Cc3n[nH]c(=O)cc32)cc1 | inactive: 0.0315% | –
CCS(=O)(=O)N1CCC(C(=O)Nc2cccc(F)c2)CC1 | inactive: 0.12% | –
CCOC(=O)N1CCN(C(=O)C2CCCN(S(=O)(=O)c3ccc(OCC)cc3)C2)CC1 (stereo unspecified) | – | inconclusive [falling, single point]
Cn1c(SCC(=O)NCCc2ccccc2)ncc(C(=O)Nc2ccccc2)c1=O | – | inconclusive [falling, partial curve, poor fit]
Cc1nn(-c2ccccn2)c2c1C(c1ccccc1Cl)C1=C(N2)c2ccccc2C1=O (stereo unspecified) | inactive: -0.611% | –
COC(=O)[C@]1(C)N[C@H](CN(C)S(=O)(=O)c2ccccc2)[C@@H]2C(=O)N(C)C(=O)[C@@H]21 | – | inconclusive [falling, single point]

SMILES | activity, negative = inhibition | Potency
CC(=O)OCC(=O)[C@@]1(O)CC[C@H]2[C@@H]3CCC4=CC(=O)C=C[C@]4(C)[C@@]3(F)[C@@H](O)C[C@@]21C | – | inconclusive [falling, single point]
CC1(C)CC(=O)C(C2C3=C(CC(C)(C)CC3=O)Oc3ccc4ccccc4c32)C(=O)C1 (stereo unspecified) | inactive: -8.85% | –
C=C(C)C(=O)Nc1cccc(C2=NOC3(C2)C[C@@H](C(N)=O)N(C(=O)C2(C)CC2)C3)c1 (stereo partly specified) | – | active: 1.51 µM
O=C(CSc1ncn[nH]1)c1cccc([N+](=O)[O-])c1 | – | inconclusive [falling, single point]
O=C(CSc1n[nH]c(=O)n1C1CC1)Nc1ccc(F)c(Cl)c1 | – | inconclusive [falling, partial curve]
Cc1cccc(N2CCN(C3=NC(=O)/C(=C\c4cn[nH]c4-c4ccccc4)S3)CC2)c1 | inactive: 0.516% | –
NNc1ccccc1C(F)(F)F | inactive: -1.87% | –
NS(=O)(=O)c1ccc(CCNC(=O)CCS(=O)(=O)c2ccc(Br)cc2)cc1 | – | active: 15.1 µM
COc1ccc(CNC(=O)C2CCN(C(=O)[C@@H]3Cc4ccccc4CN3)CC2)cc1 | inactive: -5.2% | –
O=C(NCc1cccnc1)Nc1ccc(Cl)cc1 | – | inconclusive [falling, partial curve]
CCN(CC)C(=S)Nc1ccc(Cl)c(Cl)c1 | – | inconclusive [falling, partial curve]
Cc1cccc(C)c1NC(=O)CN(C)C(=O)c1cccc(-n2cccc2)c1 | – | inconclusive [falling, full curve]
O=C(N/N=C\c1cc(Br)c(Br)o1)C1COc2ccccc2O1 (stereo unspecified) | – | inconclusive [falling, single point]
Cc1ccc(C(=O)N2CCN(C34CC5CC(CC(C5)C3)C4)CC2)o1 | – | inconclusive [falling, single point]
CCN(CC(=O)Nc1c(F)cccc1F)C(=O)c1cccc(-n2cccc2)c1 | – | inconclusive [falling, full curve]
O=c1ccc2c(-c3ccccc3S(=O)(=O)O)c3ccc(O)c(O)c3oc-2c1O | – | active: 2.39 µM
c1ccc2c(c1)nc(NC1CCCCC1)c1nncn12 | – | inconclusive [falling, single point]
NNC(=O)CNc1cccc(Cl)c1 | – | active: 12 µM
COc1cc(CN2CCNC(=O)C2CC(=O)N2CCCO2)cc(OC)c1 (stereo unspecified) | inactive: 1.31% | –
Cc1cc(O)c(Oc2cc(C)cc(O)c2O)c(O)c1 | – | inconclusive [falling, full curve]
CCOc1ccccc1NS(=O)(=O)c1c(C)noc1C | – | inconclusive [activator, single point]
O=C(Nc1ccccc1F)C(=Cc1sc(N2CCOCC2)nc1-c1ccccc1)C(=O)Nc1ccccc1F | inactive: -1.66% | –
O=C(C1CC(=O)N(c2ccccc2F)C1)N1CCOCC1 (stereo unspecified) | inactive: -2.24% | –
